This passage reports enrichment score results from the supplement of paper PMC10369915.

Some of the results follow. Cut-off read from the data, not from the text of the source: active = 3.2 or more and inactive = the rest. Only a few entries rise above the background.
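Note: displayed peptides selected on beads carrying the immobilized SH2 domain, with library peptides lacking any tyrosine serving as negative controls.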

The target of one test is SHP2 C-SH2 domain E139D. The experiment in a line: enrichment score (SH2-bound / input frequency) (ratio); bacterial display of known human phosphotyrosine sites (pTyr-Var adds point mutants) read by sequencing; higher = stronger binding; tyrosines were phosphorylated by kinases first. Particulars: peptide library: pTyr-Var.
On to LFSGDCFRIQG [DDR2_Y740_Y740C_YF], for which the enrichment score is inactive: 1.13.

LKTNCYNNGKD [DNMT3B_Y404]: the enrichment score was inactive: 0.864.

In the case of KALKQYRAGPS [DDX27_Y763], the enrichment score was inactive: 0.374.

For the molecule RIVTTYIWERE [DNM2_Y463_R465W], the enrichment score is inactive: 1.86.

RLPNGYGLAYR [DLK1_Y262_S260N]: the enrichment score was inactive: 0.645.

As to GMSQAYSSSQR [DES_Y5], the enrichment score was inactive: 0.724.

Turning to GDNSIYVTKII [DLG1_Y349], the enrichment score is inactive: 0.47.

With RILENYGADID [DNAH5_Y596_L591R], the enrichment score is inactive: 1.19.

MSRNLYSGDFF [DDR2_Y736_YF]: the enrichment score was inactive: 1.07.

Regarding SEPSGYQDNIA [DES_Y363_A360P], the enrichment score is inactive: 0.601.

Take TQNAVYSAANF [DDX5_Y535_G533A_YF]: the enrichment score was inactive: 0.894.

As for RHLREYQDLLN [DES_Y388], the enrichment score was inactive: 1.8.

For the molecule QEMMEYRHQIQ [DES_Y324], the enrichment score was inactive: 0.776.

With DAAEDYAEGVR [DHODH_Y194], the enrichment score was inactive: 0.527.

Turning to CDTKLYTSVPN [DNTTIP2_Y427_A430V], the enrichment score was inactive: 0.798.

Consider GFPVRYTDVSN [DNMT3B_Y815_H814R], for which the enrichment score is inactive: 0.792.

With IAAEFYDNLPH [DEGS1_Y284_YF], the enrichment score is inactive: 0.7.

For the molecule TSIGNYYKPWF [DHCR24_Y299_N294T], the enrichment score is inactive: 0.896.

For the next test, the target named is SHP2 C-SH2 domain wild-type. The test is described as above. Particulars: peptide library: pTyr-Var.
With LFSGDCFRIQG [DDR2_Y740_Y740C_YF], the enrichment score was inactive: 1.12.

For the molecule LKTNCYNNGKD [DNMT3B_Y404], the enrichment score is inactive: 1.26.

Regarding KALKQYRAGPS [DDX27_Y763], the enrichment score is inactive: 0.494.

For RIVTTYIWERE [DNM2_Y463_R465W], the enrichment score was inactive: 1.73.

With RLPNGYGLAYR [DLK1_Y262_S260N], the enrichment score was inactive: 0.596.

On to GMSQAYSSSQR [DES_Y5], for which the enrichment score was inactive: 0.687.

Regarding GDNSIYVTKII [DLG1_Y349], the enrichment score was inactive: 0.534.

As for RILENYGADID [DNAH5_Y596_L591R], the enrichment score is inactive: 0.826.

Take MSRNLYSGDFF [DDR2_Y736_YF]: the enrichment score is inactive: 0.875.

For the molecule SEPSGYQDNIA [DES_Y363_A360P], the enrichment score was inactive: 0.524.

For the molecule TQNAVYSAANF [DDX5_Y535_G533A_YF], the enrichment score is inactive: 0.868.

For RHLREYQDLLN [DES_Y388], the enrichment score is inactive: 1.52.

As for QEMMEYRHQIQ [DES_Y324], the enrichment score was inactive: 0.706.

As to DAAEDYAEGVR [DHODH_Y194], the enrichment score was inactive: 0.409.

Turning to CDTKLYTSVPN [DNTTIP2_Y427_A430V], the enrichment score is inactive: 0.723.

GFPVRYTDVSN [DNMT3B_Y815_H814R]: the enrichment score was inactive: 0.737.

With IAAEFYDNLPH [DEGS1_Y284_YF], the enrichment score was inactive: 0.707.

For TSIGNYYKPWF [DHCR24_Y299_N294T], the enrichment score was inactive: 1.88.

The target of the next test is SHP2 N-SH2 domain L43F. The description is as above. As to conditions: peptide library: pTyr-Var.
As for LFSGDCFRIQG [DDR2_Y740_Y740C_YF], the enrichment score is inactive: 1.02.

Take LKTNCYNNGKD [DNMT3B_Y404]: the enrichment score is inactive: 1.05.

Regarding KALKQYRAGPS [DDX27_Y763], the enrichment score was inactive: 0.402.

As for RIVTTYIWERE [DNM2_Y463_R465W], the enrichment score was inactive: 1.26.

Take RLPNGYGLAYR [DLK1_Y262_S260N]: the enrichment score was inactive: 0.636.

GMSQAYSSSQR [DES_Y5]: the enrichment score was inactive: 0.562.

With GDNSIYVTKII [DLG1_Y349], the enrichment score is inactive: 0.568.

Take RILENYGADID [DNAH5_Y596_L591R]: the enrichment score is inactive: 0.994.

MSRNLYSGDFF [DDR2_Y736_YF]: the enrichment score is inactive: 0.837.

On to SEPSGYQDNIA [DES_Y363_A360P], for which the enrichment score was inactive: 0.582.

Consider TQNAVYSAANF [DDX5_Y535_G533A_YF], for which the enrichment score is inactive: 0.862.

As to RHLREYQDLLN [DES_Y388], the enrichment score is inactive: 1.24.

On to QEMMEYRHQIQ [DES_Y324], for which the enrichment score is inactive: 0.823.

In the case of DAAEDYAEGVR [DHODH_Y194], the enrichment score was inactive: 0.462.

For the molecule CDTKLYTSVPN [DNTTIP2_Y427_A430V], the enrichment score was inactive: 0.837.

Turning to GFPVRYTDVSN [DNMT3B_Y815_H814R], the enrichment score was inactive: 0.952.

For IAAEFYDNLPH [DEGS1_Y284_YF], the enrichment score is inactive: 0.882.

For the molecule TSIGNYYKPWF [DHCR24_Y299_N294T], the enrichment score is active: 5.3.

The target in a further test is SHP2 N-SH2 domain T42A. Described as above. As to conditions: peptide library: pTyr-Var.
For the molecule LFSGDCFRIQG [DDR2_Y740_Y740C_YF], the enrichment score is inactive: 0.927.

As to LKTNCYNNGKD [DNMT3B_Y404], the enrichment score is inactive: 0.749.

As for KALKQYRAGPS [DDX27_Y763], the enrichment score was inactive: 0.398.

As to RIVTTYIWERE [DNM2_Y463_R465W], the enrichment score is inactive: 1.68.

Take RLPNGYGLAYR [DLK1_Y262_S260N]: the enrichment score is inactive: 0.615.

As to GMSQAYSSSQR [DES_Y5], the enrichment score was inactive: 0.471.

Take GDNSIYVTKII [DLG1_Y349]: the enrichment score is inactive: 0.467.

For RILENYGADID [DNAH5_Y596_L591R], the enrichment score is inactive: 0.653.

Consider MSRNLYSGDFF [DDR2_Y736_YF], for which the enrichment score is inactive: 0.87.

SEPSGYQDNIA [DES_Y363_A360P]: the enrichment score is inactive: 0.554.

With TQNAVYSAANF [DDX5_Y535_G533A_YF], the enrichment score was inactive: 0.649.

RHLREYQDLLN [DES_Y388]: the enrichment score is inactive: 1.22.

For the molecule QEMMEYRHQIQ [DES_Y324], the enrichment score is inactive: 0.608.

On to DAAEDYAEGVR [DHODH_Y194], for which the enrichment score was inactive: 0.473.

As for CDTKLYTSVPN [DNTTIP2_Y427_A430V], the enrichment score is inactive: 0.575.

GFPVRYTDVSN [DNMT3B_Y815_H814R]: the enrichment score is inactive: 3.16.

As for IAAEFYDNLPH [DEGS1_Y284_YF], the enrichment score is inactive: 0.657.

Regarding TSIGNYYKPWF [DHCR24_Y299_N294T], the enrichment score was active: 5.56.

In another test the target is SHP2 N-SH2 domain T52S. The description is as above. As to conditions: peptide library: pTyr-Var.
For the molecule LFSGDCFRIQG [DDR2_Y740_Y740C_YF], the enrichment score is inactive: 1.07.

Take LKTNCYNNGKD [DNMT3B_Y404]: the enrichment score was inactive: 1.14.

As to KALKQYRAGPS [DDX27_Y763], the enrichment score was inactive: 0.402.

Consider RIVTTYIWERE [DNM2_Y463_R465W], for which the enrichment score was inactive: 1.41.

Turning to RLPNGYGLAYR [DLK1_Y262_S260N], the enrichment score was inactive: 0.689.

GMSQAYSSSQR [DES_Y5]: the enrichment score is inactive: 0.443.

As for GDNSIYVTKII [DLG1_Y349], the enrichment score was inactive: 0.513.

With RILENYGADID [DNAH5_Y596_L591R], the enrichment score is inactive: 0.85.

Turning to MSRNLYSGDFF [DDR2_Y736_YF], the enrichment score was inactive: 0.835.

With SEPSGYQDNIA [DES_Y363_A360P], the enrichment score is inactive: 0.437.

Regarding TQNAVYSAANF [DDX5_Y535_G533A_YF], the enrichment score was inactive: 0.811.

For RHLREYQDLLN [DES_Y388], the enrichment score was inactive: 1.73.

In the case of QEMMEYRHQIQ [DES_Y324], the enrichment score is inactive: 0.611.

Turning to DAAEDYAEGVR [DHODH_Y194], the enrichment score was inactive: 0.531.

Take CDTKLYTSVPN [DNTTIP2_Y427_A430V]: the enrichment score is inactive: 0.795.

With GFPVRYTDVSN [DNMT3B_Y815_H814R], the enrichment score was inactive: 0.963.

Turning to IAAEFYDNLPH [DEGS1_Y284_YF], the enrichment score was inactive: 0.889.

As for TSIGNYYKPWF [DHCR24_Y299_N294T], the enrichment score was active: 7.09.

Another test deals with SHP2 N-SH2 domain wild-type. Described as above. As to conditions: peptide library: pTyr-Var.
On to LFSGDCFRIQG [DDR2_Y740_Y740C_YF], for which the enrichment score was inactive: 1.11.

As for LKTNCYNNGKD [DNMT3B_Y404], the enrichment score is inactive: 1.11.

In the case of KALKQYRAGPS [DDX27_Y763], the enrichment score is inactive: 0.488.

RIVTTYIWERE [DNM2_Y463_R465W]: the enrichment score is inactive: 1.47.

Take RLPNGYGLAYR [DLK1_Y262_S260N]: the enrichment score is inactive: 0.841.

GMSQAYSSSQR [DES_Y5]: the enrichment score was inactive: 0.711.

With GDNSIYVTKII [DLG1_Y349], the enrichment score is inactive: 0.576.

In the case of RILENYGADID [DNAH5_Y596_L591R], the enrichment score was inactive: 1.32.

Regarding MSRNLYSGDFF [DDR2_Y736_YF], the enrichment score is inactive: 0.822.

Regarding SEPSGYQDNIA [DES_Y363_A360P], the enrichment score was inactive: 0.641.

In the case of TQNAVYSAANF [DDX5_Y535_G533A_YF], the enrichment score is inactive: 0.753.

As to RHLREYQDLLN [DES_Y388], the enrichment score is inactive: 1.84.

With QEMMEYRHQIQ [DES_Y324], the enrichment score was inactive: 0.97.

As to DAAEDYAEGVR [DHODH_Y194], the enrichment score is inactive: 0.564.

On to CDTKLYTSVPN [DNTTIP2_Y427_A430V], for which the enrichment score was inactive: 0.895.

Consider GFPVRYTDVSN [DNMT3B_Y815_H814R], for which the enrichment score is inactive: 0.75.

With IAAEFYDNLPH [DEGS1_Y284_YF], the enrichment score was inactive: 0.787.

With TSIGNYYKPWF [DHCR24_Y299_N294T], the enrichment score was inactive: 2.14.
